Some entries of the source have several records that differ or are many. The other results are left out here. The source may hold further records. Some entries list several cross-links; each record is another pair of residues.

This passage reports cross-linked residues results from article PMC10156912.

Experiment [1] concerns the target MORF4L1 (UniProt Q9UBU8). Description: cross-linking mass spectrometry. Conditions: DSSO, not determined.
Experiment [2] concerns the target PHF12 (UniProt Q96QT6). The experiment in a line: cross-linking mass spectrometry. Conditions: DSSO, not determined.
UniProt Q96QT6, sequence (Q96QT6 whole entry): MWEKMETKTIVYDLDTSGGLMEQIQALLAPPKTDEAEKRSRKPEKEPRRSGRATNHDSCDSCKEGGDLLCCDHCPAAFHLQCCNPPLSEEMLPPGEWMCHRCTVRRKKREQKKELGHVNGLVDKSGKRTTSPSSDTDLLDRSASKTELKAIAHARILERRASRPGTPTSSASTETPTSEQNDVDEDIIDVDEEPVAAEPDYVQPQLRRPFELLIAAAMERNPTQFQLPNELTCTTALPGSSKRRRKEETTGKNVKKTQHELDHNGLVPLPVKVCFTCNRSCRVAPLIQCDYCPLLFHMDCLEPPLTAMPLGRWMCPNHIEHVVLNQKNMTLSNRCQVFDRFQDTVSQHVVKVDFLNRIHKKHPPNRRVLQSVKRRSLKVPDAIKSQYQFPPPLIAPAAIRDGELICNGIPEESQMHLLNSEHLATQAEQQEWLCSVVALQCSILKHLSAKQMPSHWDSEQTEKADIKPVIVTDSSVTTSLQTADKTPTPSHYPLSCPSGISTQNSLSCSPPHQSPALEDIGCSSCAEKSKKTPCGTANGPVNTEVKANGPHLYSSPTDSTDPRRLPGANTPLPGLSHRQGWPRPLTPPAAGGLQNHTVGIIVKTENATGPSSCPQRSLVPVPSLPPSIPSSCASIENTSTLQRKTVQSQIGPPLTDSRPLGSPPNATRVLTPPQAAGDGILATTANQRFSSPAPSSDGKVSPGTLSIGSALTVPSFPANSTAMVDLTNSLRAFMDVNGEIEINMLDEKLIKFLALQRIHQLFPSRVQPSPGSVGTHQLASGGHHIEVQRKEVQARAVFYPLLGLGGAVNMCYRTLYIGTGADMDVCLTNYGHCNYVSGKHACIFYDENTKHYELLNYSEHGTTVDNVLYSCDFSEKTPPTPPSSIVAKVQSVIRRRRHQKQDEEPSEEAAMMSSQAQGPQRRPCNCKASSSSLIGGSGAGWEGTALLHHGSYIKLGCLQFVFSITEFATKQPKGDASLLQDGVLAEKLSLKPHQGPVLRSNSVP

UniProt Q9UBU8, sequence (Q9UBU8 whole entry): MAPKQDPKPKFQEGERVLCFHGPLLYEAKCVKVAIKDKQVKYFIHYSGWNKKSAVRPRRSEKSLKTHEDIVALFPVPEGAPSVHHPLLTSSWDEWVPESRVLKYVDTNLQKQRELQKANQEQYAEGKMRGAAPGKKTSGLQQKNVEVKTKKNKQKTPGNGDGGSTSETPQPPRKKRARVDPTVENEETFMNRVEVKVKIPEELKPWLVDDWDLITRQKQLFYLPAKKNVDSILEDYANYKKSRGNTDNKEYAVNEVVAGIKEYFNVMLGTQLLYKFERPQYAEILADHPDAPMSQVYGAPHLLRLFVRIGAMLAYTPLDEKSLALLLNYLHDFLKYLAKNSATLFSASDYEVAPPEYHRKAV
HDAC2, sequence (Q92769 whole entry): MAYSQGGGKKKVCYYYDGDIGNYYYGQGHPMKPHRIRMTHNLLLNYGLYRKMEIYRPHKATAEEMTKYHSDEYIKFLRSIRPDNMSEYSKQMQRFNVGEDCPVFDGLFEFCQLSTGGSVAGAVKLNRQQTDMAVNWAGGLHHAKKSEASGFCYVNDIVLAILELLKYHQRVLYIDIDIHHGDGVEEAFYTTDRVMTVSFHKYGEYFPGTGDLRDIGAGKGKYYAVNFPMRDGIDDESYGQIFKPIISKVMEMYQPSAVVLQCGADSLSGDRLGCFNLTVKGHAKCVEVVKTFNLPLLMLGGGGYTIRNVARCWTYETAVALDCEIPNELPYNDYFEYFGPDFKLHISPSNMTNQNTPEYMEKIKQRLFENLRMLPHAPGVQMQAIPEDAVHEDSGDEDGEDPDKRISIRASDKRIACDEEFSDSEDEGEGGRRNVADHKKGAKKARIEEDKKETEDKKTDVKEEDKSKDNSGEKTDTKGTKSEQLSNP

With HDAC2, Q92769, the cross-linked residues entry in experiment [1] is “K75 - K117 and K75 - K127 and K75 - K136 and K75 - K143 and K75 - K218 and K221 - K117 and K243 - K8 and K243 - K143 and K284 - K111 and K284 - K127 and K439 - K143 and K439 - K148 and K439 - K249 and K451 - K111 and K451 - K136 and K451 - K249 and K452 - K111 and K474 - K111 and K474 - K148 and K481 - K117 and K481 - K249”; in experiment [2], “K75 - K45 and K75 - K378 and K221 - K373 and K221 - K378 and K243 - K242 and K439 - K373 and K439 - K378 and K462 - K373 and K468 - K373”.
